# Experimental data published in the supplement of paper PMC9446081.
# About 220 (0.56%) of roughly 39,000 compounds showed activity. This is one part of the list.
# Tested on: Escherichia coli K-12 BW25113
# Assay: relative growth (OD600 normalised to plate interquartile mean) (fraction); higher = less growth inhibition, active = 0.2 or less
# Settings: 50 µM; LB; incubation time: overnight (16-24 h)
# 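Further: static incubation at 37 °C against the wild-type strain, values averaged over two biological replicates.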
row,Compound,relative growth
1,Cc1noc(C)c1NC(=O)Nc1cccc2c1O[C@H](CN(C)C(=O)Nc1cccc3ccccc13)[C@H](C)CN([C@H](C)CO)C2=O,inactive: 1.03
2,C[C@@H]1CCCCO[C@H](CN(C)S(=O)(=O)c2cn(C)cn2)[C@H](C)CN([C@@H](C)CO)C(=O)c2cc(NC(=O)CCCN(C)C)ccc2O1,inactive: 0.977
3,Nc1ccccc1C(=O)N1CCOCC1,inactive: 0.991
4,O=c1cc(CN2CC[C@H](N3CCOCC3)[C@H](CCCO)C2)nc2c(O)cccn12,inactive: 1.02
5,COc1ccc(S(=O)(=O)Nc2ccc3c(c2)C(=O)N([C@@H](C)CO)C[C@@H](C)[C@H](CN(C)S(=O)(=O)c2ccc(Cl)cc2)OCCCC[C@H](C)O3)cc1,inactive: 1.01
6,CCN1CCCC(OC(=O)C(c2ccccc2)c2ccccc2)C1.Cl (stereo not drawn),inactive: 0.981
7,Nc1ccc2c(c1)OCO2,inactive: 1.03
8,N=C(N)NCCCC[C@@H]1NC(=O)CCSSC[C@@H](C(N)=O)NC(=O)[C@@H]2CCCN2C(=O)[C@H](Cc2c[nH]c3ccccc23)NC(=O)[C@H](CC(=O)O)NC(=O)CNC1=O,inactive: 0.991
9,Cn1nnc2c1[C@H](COCC1CC1)CN(C(=O)CS(C)(=O)=O)C2,inactive: 1
10,COc1ccc(S(=O)(=O)Nc2cccc3c2O[C@H](CN(C)S(=O)(=O)c2ccc(OC)cc2)[C@H](C)CN([C@H](C)CO)C3=O)cc1,inactive: 1.03
11,O=C(CN1CCOCC1)NCC[C@H]1CC[C@@H](NC(=O)Cc2ccccn2)[C@H](CO)O1,inactive: 1
12,C[C@@H]1CN([C@@H](C)CO)C(=O)Cc2cc(NS(=O)(=O)c3cn(C)cn3)ccc2O[C@@H]1CN(C)C(=O)Nc1ccccc1,inactive: 0.969
13,C[C@H]1CN([C@@H](C)CO)C(=O)Cc2cc(NS(=O)(=O)c3ccccc3)ccc2O[C@@H]1CN(C)Cc1ccc(Cl)c(Cl)c1,inactive: 0.971
14,O=C(NCCCO)C(=O)NC[C@H]1COc2ccccc2O1,inactive: 1.02
15,O=C(O)CNC(=O)c1cc(=O)[nH]c(=O)[nH]1,inactive: 0.986
16,CCS(=O)(=O)CCn1c([N+](=O)[O-])cnc1C,inactive: 1.13
17,C[C@H]1CN([C@@H](C)CO)C(=O)c2cc(NS(=O)(=O)c3ccc(Cl)cc3)ccc2O[C@@H]1CN(C)Cc1ccc(Oc2ccccc2)cc1,inactive: 1.01
18,COc1ccc(-c2cnc3c(c2)C(=O)N([C@@H](C)CO)C[C@H](C)[C@@H](CN(C)C(=O)Cc2cccnc2)O3)cc1,inactive: 0.989
19,C[C@@H]1CCCCO[C@H](CN(C)Cc2ccc(C(=O)O)cc2)[C@H](C)CN([C@@H](C)CO)C(=O)c2cc(NC(=O)Cc3ccccc3)ccc2O1,inactive: 0.977
20,COc1ccc(S(=O)(=O)Nc2ccc3c(c2)C(=O)N([C@@H](C)CO)C[C@H](C)[C@@H](CN(C)C(=O)Nc2ccc4c(c2)OCO4)OCCCC[C@H](C)O3)cc1,inactive: 1.03
21,O=C1CNC(=O)N1[C@H]1CCNC1,inactive: 0.996

row,Compound,relative growth
1,O=C1CCc2cc(OCCCCc3nnnn3C3CCCCC3)ccc2N1,inactive: 1.19
2,C[C@@H]1CN([C@@H](C)CO)C(=O)Cc2cc(NC(=O)Cn3cnnn3)ccc2O[C@H]1CN(C)S(=O)(=O)c1ccc(F)cc1,inactive: 1.03
3,Cc1noc(C)c1NC(=O)N1C[C@H](O)COC[C@H]2O[C@H](CC(=O)N[C@H]3CCN(Cc4ccccc4)C3)CC[C@@H]21,inactive: 1.03
4,COc1ccc(NC(=O)N(C)C[C@H]2OCCCC[C@@H](C)Oc3ccc(NS(=O)(=O)c4ccc(C)cc4)cc3C(=O)N([C@@H](C)CO)C[C@H]2C)cc1,inactive: 1.02
5,CC(C)NC(=O)N(C)C[C@H]1OCCCC[C@@H](C)Oc2ccc(NC(=O)Nc3ccc(F)cc3)cc2C(=O)N([C@@H](C)CO)C[C@H]1C,inactive: 0.982
6,C[C@H](CO)N1C[C@H](C)[C@@H](CN(C)C(=O)NC2CCCCC2)Oc2ccc(NS(C)(=O)=O)cc2C1=O,inactive: 1
7,COc1ccc2c3c(n(c2c1)C)[C@@H](CO)N(Cc1ccccc1F)C[C@]13CN(C1)C(=O)C1CCOCC1,inactive: 0.994
8,Cc1ccc(-c2ccc3c(c2)O[C@H](CN(C)C(=O)Nc2ccc(C(F)(F)F)cc2)[C@H](C)CN([C@@H](C)CO)S3(=O)=O)cc1,inactive: 1.02
9,O=C(C[C@H]1CC[C@@H]2[C@H](COC[C@@H](O)CN2Cc2ccccc2F)O1)N[C@H]1CCN(Cc2ccccc2)C1,inactive: 0.997
10,C[C@@H]1CN([C@@H](C)CO)C(=O)c2cc(NC(=O)CCC(F)(F)F)ccc2O[C@@H](C)CCCCO[C@@H]1CN(C)S(=O)(=O)c1ccc(Cl)cc1,inactive: 1.02
11,Cc1cc(O)c2c(c1)Cc1cccc(O)c1C2=O,inactive: 0.896
12,NC(=O)c1cc(S(N)(=O)=O)ccc1Cl,inactive: 0.993
13,C[C@H]1CN([C@@H](C)CO)S(=O)(=O)c2ccc(/C=C/c3ccccc3)cc2O[C@H]1CN(C)C(=O)Nc1cc(F)ccc1F,inactive: 1.01
14,CO[C@@H]1CN(C)C(=O)c2ccc(NS(=O)(=O)c3ccccc3)cc2OC[C@H](C)N(C(=O)NC(C)C)C[C@@H]1C,inactive: 1.02
15,Cc1noc(C)c1S(=O)(=O)Nc1ccc2c(c1)C(=O)N([C@@H](C)CO)C[C@H](C)[C@H](CN(C)C(=O)NC1CCCCC1)O2,inactive: 0.985
16,C=C1NC(=O)CN1c1ccc(N)cc1,inactive: 0.979
17,C[C@@H]1CN([C@@H](C)CO)C(=O)c2cc(NC(=O)Cc3ccccc3)ccc2O[C@@H]1CN(C)Cc1ccc(C(F)(F)F)cc1,inactive: 0.959
18,Cc1cccc(NC(=O)C(C)C)c1,inactive: 1.02
19,C[C@@H]1CCCCO[C@H](CN(C)Cc2ccc(C(F)(F)F)cc2)[C@@H](C)CN([C@H](C)CO)C(=O)c2cc(NC(=O)CCCN(C)C)ccc2O1,inactive: 0.949
20,C[C@@H]1CN([C@@H](C)CO)S(=O)(=O)c2ccc(-c3cncnc3)cc2O[C@@H]1CN(C)C(=O)Cc1cccnc1,inactive: 0.979
21,O=C(C[C@@H]1C=C[C@@H](NC(=O)CN2CCOCC2)[C@H](CO)O1)NCc1cccc(F)c1,inactive: 1.02

row,Compound,relative growth
1,Cc1noc(C)c1NC(=O)N(C)C[C@@H]1OCCCC[C@H](C)Oc2ccc(NC(=O)NC3CCCCC3)cc2C(=O)N([C@@H](C)CO)C[C@H]1C,inactive: 1.03
2,O=C1OC2(c3ccc(O)cc3Oc3cc(O)ccc32)c2ccccc21,inactive: 1.09
3,C[C@@H]1CN([C@H](C)CO)C(=O)c2cc(NC(=O)C3CCCCC3)ccc2O[C@@H](C)CCCCO[C@@H]1CN(C)C(=O)C1CCCCC1,inactive: 0.99
4,COc1ccc(S(=O)(=O)Nc2ccc3c(c2)CC(=O)N([C@@H](C)CO)C[C@H](C)[C@@H](CN(C)S(=O)(=O)c2ccc(OC)cc2)O3)cc1,inactive: 0.998
5,O=C(C[C@H]1CC[C@H]2[C@@H](COC[C@H](O)CN2Cc2cc(F)ccc2F)O1)N[C@H]1CCN(Cc2ccccc2)C1,inactive: 1
6,Cc1noc(C)c1NC(=O)N(C)C[C@H]1Oc2c(NC(=O)c3cnccn3)cccc2C(=O)N([C@@H](C)CO)C[C@@H]1C,inactive: 0.995
7,C[C@H](NC(=O)C[C@@H]1C=C[C@@H](NC(=O)CN2CCOCC2)[C@@H](CO)O1)c1ccccc1,inactive: 1.03
8,C[C@H](CO)N1C[C@H](C)[C@H](CN(C)S(=O)(=O)c2ccccc2)OCCCC[C@H](C)Oc2ccc(NS(=O)(=O)c3cn(C)cn3)cc2C1=O,inactive: 1.01
9,CC(C)C#Cc1cnc2c(c1)C(=O)N([C@H](C)CO)C[C@H](C)[C@H](CN(C)C(=O)c1ccc3c(c1)OCO3)O2,inactive: 0.977
10,CNC[C@@H]1OCCCC[C@@H](C)Oc2ccc(NC(=O)Nc3cccc4ccccc34)cc2C(=O)N([C@H](C)CO)C[C@H]1C,inactive: 0.993
11,COc1ccc([Si](C)(C)[C@H]2[C@H](CC(=O)N3Cc4ccccc4C[C@H]3CO)O[C@@]3(C(=O)N(Cc4ccc(N5C(=O)c6cccc7cccc5c67)cc4)c4ccccc43)[C@@H]2C)cc1,inactive: 1.01
12,COCCNC(=O)C[C@H]1C[C@H]2c3cc(NC(=O)CN(C)C)ccc3O[C@H]2[C@H](CO)O1,inactive: 0.973
13,C[C@@H]1CCCCO[C@@H](CN(C)S(C)(=O)=O)[C@H](C)CN([C@@H](C)CO)C(=O)c2cc(NC(=O)c3ccncc3)ccc2O1,inactive: 1
14,O=C(C[C@H]1CC[C@H]2[C@@H](COC[C@@H](O)CN2C(=O)Nc2cccc(F)c2)O1)NCc1ccccc1Cl,inactive: 0.953
15,C#CCCC(=O)NS(=O)(=O)c1ccccc1,inactive: 1
16,C[C@@H]1CN([C@H](C)CO)C(=O)c2cccc(NC(=O)NC3CCCCC3)c2O[C@H]1CN(C)S(=O)(=O)c1cn(C)cn1,inactive: 0.999
17,C[C@@H]1CCCCO[C@H](CN(C)C(=O)NC2CCCCC2)[C@H](C)CN([C@@H](C)CO)C(=O)c2cc(NS(=O)(=O)c3ccc(F)cc3)ccc2O1,inactive: 0.977
18,CC(C)NC(=O)Nc1ccc2c(c1)CC(=O)N([C@@H](C)CO)C[C@@H](C)[C@@H](CN(C)S(=O)(=O)c1cccs1)O2,inactive: 1.02
19,C[C@@H]1CN([C@H](C)CO)C(=O)CCCn2nncc2CO[C@@H]1CN(C)S(=O)(=O)c1ccc(Oc2ccccc2)cc1,inactive: 1.02
20,CCOC(=O)C1CCNCC1,inactive: 0.987
21,C[C@H](CO)N1C[C@H](C)[C@H](CN(C)C(=O)Nc2ccccc2)Oc2ncc(-c3cccc(C(F)(F)F)c3)cc2C1=O,inactive: 1.01
